# Measured values: publication PMC4336329 (PLoS ONE, 2015)
# The whole screen tested about 310,000 compounds, of which about 14,000 (4.5%) showed an effect of 50% or more. The effect is printed as a negative number. Some of the results follow.
# Target: human ether-à-go-go-related gene (hERG) potassium channel (human, UniProt Q12809)
# Experiment: primary screen, population patch clamp on CHO cells stably expressing hERG
# 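Further: peak tail current of the secondary pulse compared with the same well before compound.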
# Sequence of human ether-à-go-go-related gene (hERG) potassium channel (Q12809 whole entry, looked up): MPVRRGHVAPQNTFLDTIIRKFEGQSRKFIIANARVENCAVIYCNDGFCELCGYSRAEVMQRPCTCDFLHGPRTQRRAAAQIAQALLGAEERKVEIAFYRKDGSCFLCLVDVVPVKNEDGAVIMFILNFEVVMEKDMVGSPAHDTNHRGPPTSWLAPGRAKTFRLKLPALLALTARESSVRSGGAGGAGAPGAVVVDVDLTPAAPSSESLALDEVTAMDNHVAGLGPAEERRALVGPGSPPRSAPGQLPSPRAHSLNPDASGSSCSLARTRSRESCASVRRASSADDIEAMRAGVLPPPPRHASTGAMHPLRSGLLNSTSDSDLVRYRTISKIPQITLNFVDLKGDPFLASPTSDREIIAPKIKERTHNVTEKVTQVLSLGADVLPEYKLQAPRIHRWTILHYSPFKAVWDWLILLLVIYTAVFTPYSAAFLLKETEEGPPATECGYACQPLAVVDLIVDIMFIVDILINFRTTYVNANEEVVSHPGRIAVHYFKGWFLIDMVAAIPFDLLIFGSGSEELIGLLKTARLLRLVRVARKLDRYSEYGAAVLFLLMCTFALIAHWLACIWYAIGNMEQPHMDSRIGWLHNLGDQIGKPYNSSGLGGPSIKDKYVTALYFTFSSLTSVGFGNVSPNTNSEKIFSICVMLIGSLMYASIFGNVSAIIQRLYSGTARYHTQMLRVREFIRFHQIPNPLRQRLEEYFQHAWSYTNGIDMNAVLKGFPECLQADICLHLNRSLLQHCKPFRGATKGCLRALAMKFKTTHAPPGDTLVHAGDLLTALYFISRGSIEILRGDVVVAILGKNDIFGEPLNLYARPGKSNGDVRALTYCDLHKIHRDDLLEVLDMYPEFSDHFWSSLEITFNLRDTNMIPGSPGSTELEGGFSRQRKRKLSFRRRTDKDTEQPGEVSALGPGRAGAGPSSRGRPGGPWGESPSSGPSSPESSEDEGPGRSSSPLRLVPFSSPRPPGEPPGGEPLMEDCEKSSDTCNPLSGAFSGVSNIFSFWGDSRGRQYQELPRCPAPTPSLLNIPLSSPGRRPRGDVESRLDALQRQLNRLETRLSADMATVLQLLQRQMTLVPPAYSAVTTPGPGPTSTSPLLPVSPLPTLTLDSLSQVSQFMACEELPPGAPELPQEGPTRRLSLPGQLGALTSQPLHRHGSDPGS
row,Compound,"hERG current change (%, negative = inhibition) at 10uM"
1,Cc1nnc2n1NC(c1ccc(Cl)cc1)C(C(=O)N(C)C1CCCCC1)S2 (stereo not shown),-23.6%
2,N=c1c2c3c(sc2ncn1CCCO)CCCC3,-19.5%
3,Cc1nnc(NC(=O)C23CC4CC(C)(CC(C)(C4)C2)C3)s1,23.4%
4,c1ccc(CN2C3=NCCN3c3ccccc32)cc1,-39.5%
5,Cc1cc(C)cc(NS(=O)(=O)c2ccc3oc(=O)ccc3c2)c1,-48.2%
6,COC(=O)C1CSC(C(=O)OC)N1C(=O)CN1CCN(c2ccccc2)CC1 (stereo not shown),13.2%
7,COc1ccc(/C=N/N=C2/NC(=O)C(CC(=O)NC(C)C)S2)cc1 (stereo not shown),7.76%
8,Cc1cccc(NS(=O)(=O)c2ccc3c(c2)CCN3C(=O)CCC(=O)O)c1,23.1%
9,CCO.CN1CCC2(CC1)C1CN(C)CC=C1C(C#N)=C(N)C2(C#N)C#N.O (stereo not shown),14.6%
10,O=C(Cc1ccccc1)NCC(=O)OCc1ccc([N+](=O)[O-])cc1,-36.6%
11,Cc1occc1-c1nnc(SCC(=O)N2c3ccccc3CCc3ccccc32)n1C,-5.31%
12,O=C(O)c1cccc(NC(=O)c2cn(-c3ccccc3)nc2-c2ccncc2)c1,14.4%
13,COC(=O)c1c(NC(=O)CN2CCOCC2)sc2c1CCC(C)C2 (stereo not shown),-0.109%
14,COc1ccccc1C1C=C(c2ccc(C)cc2)Nc2nnnn21 (stereo not shown),6.16%
15,CSCC[C@H](NS(=O)(=O)c1ccc(C)cc1)C(=O)N1CCC(C(=O)N[C@@H](C)C(=O)O)CC1,6.89%
16,CCOC(=O)Cn1c(CN2CCOCC2)nc2c1c(=O)[nH]c(=O)n2C,7.2%
17,COc1ccccc1N1CCN(C(=O)c2cc3c(-c4ccc(Cl)cc4)nn(C)c3s2)CC1,1.91%
18,COc1ccc2c(c1)CCc1c(C(=O)NCC(C)C)noc1-2,12.9%
19,NC(=O)Nc1ccc(C(=O)OCC(=O)Nc2cccc(S(=O)(=O)NC3=NCCC3)c2)cc1,18.4%
20,O=C(NCCCN1CCCC1=O)c1cccc(S(=O)(=O)N2CCN(c3ccc(F)cc3)CC2)c1,-23.1%
21,CC(C)c1ccc2nc(N)sc2c1,-8.55%
22,O=C(c1n[nH]c2ccccc12)N1CCN(S(=O)(=O)c2ccc3ccccc3c2)CC1,-8.08%
23,COc1ccc(CC(=O)Nc2cc(S(=O)(=O)N3CCCCC3)ccc2N2CCN(C)CC2)cc1,-54%
24,Cc1ccc(N(C)S(=O)(=O)c2ccc(-c3ccc(=O)[nH]n3)s2)cc1C,13.7%
25,COc1cccc(NC(=O)C(c2ccccc2)N2CCNC(=O)C2)c1 (stereo not shown),-7.23%
26,O=C1c2cc(S(=O)(=O)NCCCO)ccc2-c2ccc(S(=O)(=O)NCCCO)cc21,0.851%
27,O=C(CSc1nnc(Cc2cc(=O)[nH]c(=O)[nH]2)n1-c1ccccc1)NCC1CCCO1 (stereo not shown),1.69%
28,CC(/C=C/c1ccc(O)cc1)=N/O,10.9%

row,Compound,"hERG current change (%, negative = inhibition) at 10uM"
1,Oc1cccc(Nc2nc(N3CCOCC3)nc(N3CCOCC3)n2)c1,8.76%
2,CCOc1ccc2[nH]c(=O)c(CN(Cc3cccs3)Cc3nnnn3C(C)(C)C)cc2c1,11.6%
3,COc1ccc(C(=O)c2sc3nc(-c4ccccc4)ccc3c2N)cc1,16.3%
4,CCOc1cc(/C=N/NC(=O)c2nnn(-c3nonc3N)c2C)ccc1OCc1ccc(F)cc1,13.4%
5,CC(C)CC(=O)N1CCN(S(=O)(=O)c2ccc(C3CCCCC3)cc2)CC1,0.76%
6,CC(=O)CCC(=O)NCCc1ccccc1F,-1.06%
7,O=C(c1ccc2c3c(cccc13)CC2)N1CCOCC1,10.5%
8,CC(C)(C)C(=O)Nc1c2c(nn1-c1ccc(F)cc1)CSC2,13.4%
9,C=CCNC(=S)N1CCc2c([nH]c3ccccc23)C1C (stereo not shown),11.7%
10,CCOc1ccc(OCC)c(S(=O)(=O)N2CCOCC2)c1,10.4%
11,CCCC/C(C)=C/[C@@H](NP(=O)(c1ccccc1)c1ccccc1)c1ccccc1,-2.64%
12,C/C(=N\NC(N)=S)C1C2C3CC4C5CC(C42)C1C53 (stereo not shown),-10%
13,O=C(Nc1nnc(CCN2CCOCC2)s1)c1ccccc1,9.44%
14,Cn1c(CNC(=O)c2ccco2)nnc1SCC(=O)c1ccccc1,10.6%
15,Cn1cnnc1Sc1ccc(C(=O)OCC(=O)Nc2ccccc2)cc1[N+](=O)[O-],2.15%
16,CCOC(=O)c1cc(-c2cccc([N+](=O)[O-])c2)n[nH]1,-9.26%
17,Cc1ccccc1NS(=O)(=O)c1ccc2[nH]cc(C(=O)N(C)Cc3ccco3)c(=O)c2c1,7.11%
18,CN(c1cccc(NC(=O)c2ccc(CN3CCc4ccccc4C3)cc2)c1)S(C)(=O)=O,-7.26%
19,COc1ccc([C@H]2[C@@H]3C=CCC[C@@]3(C)C(=O)N2Cc2ccccc2)cc1Cl,5.39%
20,Cc1ccc(OCC(=O)N2CCN(S(=O)(=O)c3ccc4c(c3)OCCO4)CC2)c(C)c1,-5.79%
21,Fc1ccccc1/C=N/Nc1nc2ccccc2o1,24.7%
22,CCCC1CCc2c(sc(NC(=O)c3cccs3)c2C(N)=O)C1 (stereo not shown),-3.94%
23,CC(=O)c1cccc(NC(=O)c2cccc(NC(=O)c3ccco3)c2)c1,11.6%
24,COC(=O)C1N[C@@H]([C@@H](NC(=O)COc2ccccc2)C(=O)NCc2ccccc2)SC1(C)C (stereo partly shown),-24.6%
25,Cn1c(=O)[nH]c(NC2CCCCC2)c([N+](=O)[O-])c1=O,1.43%
26,O=C(Cc1ccc(Br)cc1)N1CCN(c2ccccc2O)CC1,-4.91%
27,CCOc1ccc(CCNC(=O)CN2CCN(Cc3ccccc3F)C2=O)cc1OCC,-6.85%
